Laboratory results as given in PubChem BioAssay AID493208 (National Center for Advancing Translational Sciences (NCATS), 2011).
The campaign covered roughly 44,000 compounds. About 340 (0.77%) were called active. Not shown: some 5% with an inconclusive outcome. The call rests on the fitted dose curve; in most records, active means well fitted inhibition curve with a large enough effect; inconclusive means small, poorly fitted or top-dose-only effect; inactive means flat fitted curve, though single readings scatter. Some of the results follow.

Assay: Acumen qHTS Assay for Inhibitors of the mTORC1 Signaling Pathway in MEF (Tsc2-/-, p53-/-) Cells: Sytravon; further: nearly all actives have a fitted effect of over 50% in size;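 on activity change, negative = inhibition: plate controls were DMSO for no effect and rapamycin for full effect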
Conditions: phospho-rpS6 immunofluorescence/PI, 24 h; series mostly up to 38.3 µM; activity change, negative = inhibition: at the top concentration
In short: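 Read-out: phospho-S6 Alexa-488 intensity over PI intensity per well, scored as % active cells using thresholds from rapamycin (7.5 nM) and DMSO controls. Tsc2-/-, p53-/- MEFs exposed to compound for 24 h; PI cell count recorded as viability.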
Potency means the concentration at half of the fitted maximal effect.

Row | Compound | activity change, negative = inhibition | Potency
1 | CCC(CC)C(=O)Nc1ccc2nc(SCC(=O)N3CCCC3)sc2c1 | inactive: 0% | –
2 | CCc1cccc(C)c1NC(=O)c1cc(S(=O)(=O)N(Cc2ccc(C(=O)OC)cc2)Cc2ccc(OC)c(OC)c2)ccc1F | inactive: 7.9% | –
3 | Cc1ccccc1Oc1nc2ccccn2c(=O)c1/C=C(\C#N)c1nc2ccccc2[nH]1 | – | active: 9.27 µM
4 | CC(C)CCNC(=O)CN1C(=O)CSc2ccc(S(=O)(=O)N3CCC(C)CC3)cc21 | inactive: 6.21% | –
5 | Cc1ccc2nc(-c3cccs3)c(Nc3c(C)cccc3C)n2c1 | inactive: -14.8% | –
6 | CN(C)c1ccc(/C=C/c2nc(-c3ccccc3O)n(-c3ccccc3)n2)cc1 | inactive: 4% | –
7 | Cc1c(C(=O)NCc2ccc(F)cc2)oc2ccc(S(=O)(=O)N3CCCCC3)cc12 | inactive: -7.21% | –
8 | CCOC(=O)C1CCCN(c2nc3c(S(=O)(=O)c4ccc(CC)cc4)nnn3c3ccsc23)C1 (centres undefined) | inactive: 3.52% | –
9 | Cc1ccc2c(c1)c1c(c(=O)n(-c3cccc(Cl)c3)c(=O)n1CC(=O)NCC1CCCO1)n2C (centres undefined) | inactive: -5.74% | –
10 | Cn1c(=O)[nH]c(=O)c2c1nc(N1CCOCC1)n2Cc1ccccc1 | inactive: -6.89% | –
11 | CCOC(=O)Cc1ccc(NC(=O)Nc2c[nH]c(=O)[nH]c2=O)cc1 | inactive: 1.12% | –
12 | CCc1cccc(NC(=O)CCc2nc3cccnc3n2Cc2ccc(OC)cc2)c1 | inactive: -13.3% | –
13 | CC(=O)N1CCc2cc(S(=O)(=O)NC(Cc3ccccc3)C(=O)Nc3cccc(C)c3)ccc21 (centres undefined) | inactive: -6.77% | –
14 | Oc1c(C(c2ccc(F)cc2)N2CCOCC2)sc2nc(-c3ccco3)nn12 (centres undefined) | inactive: 3.02% | –
15 | O=C(Cn1ncc2c([nH]c3ccccc32)c1=O)Nc1cccc(C(F)(F)F)c1 | inactive: 0.79% | –
16 | Cc1cc(C)cc(N2CC(c3nc(-c4cccc(Cl)c4)no3)CC2=O)c1 (centres undefined) | inactive: -13.5% | –
17 | COc1ccc(CCNc2nccn(-c3ccc(C)c(C)c3)c2=O)cc1OC | inactive: -2.65% | –
18 | CCc1ccc(-n2c(=O)c3c4c(sc3n(Cc3ccc(C)cc3)c2=O)CCC4)cc1 | inactive: 7.58% | –
19 | Cc1ccccc1CN1c2ccccc2S(=O)(=O)c2ccccc21 | inactive: -12.5% | –
20 | COc1ccc(N2CCN(C(CNC(=O)C(=O)NCCc3ccccc3)c3cccnc3)CC2)cc1 (centres undefined) | inactive: -0.369% | –
21 | COc1ccc(C)cc1NC(=O)NCc1cccn1Cc1ccccc1 | inactive: -8.73% | –
22 | COc1ccccc1NC(=O)CN(C)S(=O)(=O)c1ccc2c(c1)c(=O)n(C)c(=O)n2C | inactive: -6.15% | –
23 | O=C(NCc1ccccc1)c1ccc2nc(CCc3ccccc3)oc2c1 | inactive: -8.4% | –
24 | Cc1ccc(CCNC(=O)NCc2noc3ccccc23)cc1 | inactive: -28.6% | –

Row | Compound | activity change, negative = inhibition | Potency
25 | COc1ccc(C)cc1NC(=O)CSc1nc2ccccc2nc1N1CCOCC1 | inactive: 0.766% | –
26 | CC1CCCN(S(=O)(=O)c2ccc3[nH]c(=O)cc(C(=O)NCCc4ccc(Cl)cc4)c3c2)C1 (centres undefined) | inactive: -6.25% | –
27 | CCOCCCN(C(=O)Nc1ccc(Cl)cc1)C1CCN(C(C)=O)CC1 | inactive: 5.35% | –
28 | Cc1c(CNC2CCCCCC2)c(C(=O)O)c(C)n1Cc1ccc(F)cc1Cl | inactive: -2.6% | –
29 | O=C(COc1ccc(Cl)cc1)Nc1nnc2n1CCS2 | inactive: 2.91% | –
30 | COc1cc(OC)cc(-c2nc(-c3cccc(C)c3)no2)c1 | inactive: -3.02% | –
31 | CC(C)c1ccc(NC(=O)c2ccc(F)c(S(=O)(=O)N3CCCCCC3)c2)cc1 | inactive: -3.38% | –
32 | COc1ccc(S(=O)(=O)NCCc2csc3nc(-c4ccc(OC)c(OC)c4)nn23)cc1C | inactive: 3.94% | –
33 | O=C1CCSc2ccc(S(=O)(=O)Nc3ccc(Cl)c(C(F)(F)F)c3)cc2N1 | inactive: -0.128% | –
34 | CCCCn1c(=O)c2oc3ccccc3c2n(CC(=O)Nc2cccc(Cl)c2C)c1=O | inactive: 4.37% | –
35 | CC(C)(C)c1ccc(C(=O)Nc2cc(-c3nc4ccccc4o3)ccc2Cl)cc1 | inactive: 11.3% | –
36 | CCc1ccccc1NC(=O)c1ccc2c(c1)CCN2S(C)(=O)=O | inactive: 2.33% | –
37 | CCc1ccccc1NC(=O)C1CCN(S(=O)(=O)c2ccc3[nH]c(=O)ccc3c2)CC1 | inactive: 1.41% | –
38 | Cc1noc(C)c1S(=O)(=O)N1CCC(C(=O)Nc2ccc(Br)cc2)CC1 | inactive: -12.7% | –
39 | COc1ccc(Cc2nc3ccc(C(=O)NCc4ccc(OC)cc4OC)cc3o2)cc1 | inactive: -0.814% | –
40 | COc1ccc(CNC(=O)c2nc(Cn3nc(C)c(Br)c3C)no2)cc1OC | inactive: 0.455% | –
41 | COc1cc(NC(=O)c2sc3nc4n(c(=O)c3c2C)CCCCC4)cc(OC)c1OC | inactive: -7.67% | –
42 | COc1ccc(CCNC(=O)C(=O)Nc2ccc(C)cc2)cc1OC | inactive: -0.694% | –
43 | COc1ccc(N2CCN(S(=O)(=O)c3c(C)[nH]c(=O)[nH]c3=O)CC2)cc1 | inactive: -4.36% | –
44 | CCN(C(=O)c1cc2cc3ccc(OC)cc3nc2o1)c1cccc(C)c1 | inactive: -4.71% | –
45 | Cc1ccc(C)c(NC(=O)CSc2nc(-c3ccccc3)cc(=O)[nH]2)c1 | inactive: 5.2% | –
46 | COc1ccc(-c2nc(C(=O)Nc3ccc(C(C)=O)cc3)nn2-c2cccc(Cl)c2)cc1 | inactive: -6.25% | –
47 | CC(=O)c1ccc(Oc2nc(C)nc3c2oc2ccccc23)cc1 | inactive: 0.624% | –
48 | COc1ccc(CN(Cc2ccco2)c2cnc(S(C)(=O)=O)nc2C(=O)Nc2ccc(F)cc2)cc1 | inactive: 0.0116% | –

Row | Compound | activity change, negative = inhibition | Potency
49 | COc1ccc(OC)c(-c2csc(-c3c(N)c(C(=O)c4ccccc4)n4ccccc34)n2)c1 | inactive: 1.14% | –
50 | CCCCOc1ccc(CNC(=O)C2COc3ccc(OC)cc3C2)cc1 (centres undefined) | inactive: -7.16% | –
51 | Cn1c(=O)n(C/C=C/c2ccccc2)c(=O)c2c1nc1n2CCN1c1ccccc1 | inactive: -10.5% | –
52 | COc1ccc(S(=O)(=O)N(CC(=O)Nc2cccc(C(F)(F)F)c2)c2ccc(C)cc2)cc1 | inactive: 7.94% | –
53 | COc1ccc(-n2c(=O)c3c(c4cc(OC)ccc4n3C)n(Cc3cc(C)ccc3C)c2=O)cc1 | inactive: -4.65% | –
54 | CCOc1ccc(C(=O)c2cn(CC(=O)Nc3ccc4c(c3)OCO4)c3ccc(OCC)cc3c2=O)cc1 | inactive: 4.5% | –
55 | O=C(Cn1ncn2nc(-c3cccs3)cc2c1=O)NCc1cccc(Br)c1 | inactive: 4.21% | –
56 | COC(=O)c1cccnc1-n1c(=O)c2cccnc2n(CC(=O)Nc2c(C)cc(C)cc2C)c1=O | inactive: -1.46% | –
57 | Cc1ccc(NC(=O)CN2C(=O)COc3ccc(S(=O)(=O)N4CCCCC4)cc32)cc1N(C)C | inactive: -4.9% | –
58 | Cc1cccc(CNC(=O)c2ccc(NC(=O)N3CC(C)Sc4ccccc43)cc2)c1 (centres undefined) | inactive: -0.979% | –
59 | CC(C)CN(CCNC(=O)CN1C(=O)CSc2ccc(S(=O)(=O)N3CCOCC3)cc21)CC(C)C | inactive: 5.09% | –
60 | Cc1ccc(NC(=O)Cn2c(=O)n(-c3ccccc3)c(=O)c3ccc(C(=O)NCc4ccc5c(c4)OCO5)cc32)c(C)c1 | inactive: -27.5% | –
61 | O=C(/C=C\c1ccc2c(c1)OCO2)NC1CC(=O)N(c2cccc(F)c2)C1 (centres undefined) | inactive: -2.81% | –
62 | O=C(Nc1c(-c2ccc(F)cc2)nc2ccccn12)c1ccccc1F | inactive: 0.379% | –
63 | CCOC(=O)c1cccc(NC(=O)c2ccc3nc(Cc4ccccc4)oc3c2)c1 | inactive: -3.06% | –
64 | Cc1ccc(-n2c3c(c(=O)[nH]c2=O)C(NC(=O)c2ccccc2C)(C(F)(F)F)C(=O)N3)cc1 (centres undefined) | inactive: 6.28% | –
65 | COc1cccc(/C=C/c2onc(C)c2S(=O)(=O)N2CCC(C(=O)N3CCC(C)CC3)CC2)c1 | inactive: -12.3% | –
66 | Cc1cc2ccccc2n1-c1ccc(C(=O)N2CCC(C(=O)NCc3ccccc3Cl)CC2)s1 | inactive: -1.48% | –
67 | COc1ccccc1N1CCN(C(=O)CSc2n[nH]c(-c3ccccc3)n2)CC1 | inactive: 4% | –
68 | CC(CNC(=O)Cc1ccc(NC(=O)N2CCSc3ncccc32)cc1)c1ccccc1 (centres undefined) | inactive: 1.66% | –
69 | Cc1ccccc1NCc1cccn1-c1nnc(N2CCC(C)CC2)s1 | inactive: -1.93% | –
70 | COc1ccc(-c2cn3c(n2)sc2cc(C(=O)Nc4cccc(OC)c4)ccc23)cc1 | inactive: 3.67% | –
71 | CCOC(=O)C1=C(CN2CCN(c3ccccc3F)CC2)NC(=O)NC1c1ccc(Cl)cc1 (centres undefined) | inactive: -0.358% | –
72 | Cc1ccc(CNC(=O)C2CCN(S(=O)(=O)c3cc(-c4noc(C)n4)ccc3C)CC2)cc1 | inactive: -0.866% | –

Row | Compound | activity change, negative = inhibition | Potency
73 | CCOc1ccc(NC(=O)CC2C(=O)N(c3ccccc3)C(=O)N2Cc2ccc3c(c2)OCO3)cc1 (centres undefined) | inactive: -2.51% | –
74 | Cc1nc2c(-c3ccccc3)c(C)nn2c(C)c1CCC(=O)NCc1ccc(F)cc1 | inactive: -9.58% | –
75 | Cc1c(Cl)cccc1-n1nc(C)c2c(C(=O)NCc3ccccc3)cc(C3CC3)nc21 | inactive: 2.87% | –
76 | Cn1c(=O)oc2cc(S(=O)(=O)Nc3ccccc3O)ccc21 | inactive: -13.8% | –
77 | CCOc1ccc(CCNC(=O)c2cc3c(s2)-c2ccccc2OC3)cc1OCC | inactive: 0.706% | –
78 | Cc1ccc(-c2cc(NC(=O)COc3ccc(Cl)cc3C)on2)cc1 | inactive: 0.524% | –
79 | COc1ccc(-c2cc(C(F)(F)F)nc(SCC(=O)N3CCC(C)CC3)n2)cc1 | inactive: -1.95% | –
80 | O=C(NCc1ccc(Cl)cc1)C1CCN(S(=O)(=O)Cc2ccccc2)CC1 | inactive: 5.13% | –
81 | CCCC(CCC)C(=O)Nc1cc(-c2cn3cccnc3n2)ccc1OC | inactive: -1.41% | –
82 | O=c1c(-c2ccc(Cl)cc2)c(C(F)(F)F)oc2c(CN3CCCCC3)c(O)ccc12 | inactive: 2.23% | –
83 | CCc1ccc(N2C(=O)CSC23C(=O)N(Cc2ccc(C)cc2)c2ccccc23)cc1 (centres undefined) | inactive: -7.24% | –
84 | COc1ccc(Cn2cc(C(=O)c3ccc(C)cc3)c(=O)c3cc(OC)c(OC)cc32)cc1 | inactive: -9.14% | –
85 | COc1ccc(S(=O)(=O)c2c(C)c(NS(=O)(=O)c3ccccc3)cc(C)c2O)cc1 | inactive: -3.89% | –
86 | Cc1oc(-c2cccc(Cl)c2)nc1CN1CCC(C(=O)NCCCN2CCN(c3ccc(F)cc3)CC2)CC1 | inactive: 0.0888% | –
87 | O=C(CSc1nc2c(c(=O)[nH]1)CCC2)Nc1ccccc1C(F)(F)F | inactive: 0.464% | –
88 | O=C(c1ccc2c(c1)CCCC2)N1CCN(c2nc3c(F)cccc3s2)CC1 | inactive: 5.27% | –
89 | COc1cc(C(c2c(C)[nH][nH]c2=O)c2c(C)[nH][nH]c2=O)ccc1OC(=O)c1cccc(C)c1 | inactive: 1.11% | –
90 | CCn1cc(C(=O)NCc2ccccc2)c(=O)c2cc(S(=O)(=O)N3CCc4ccccc4C3)ccc21 | inactive: -13.5% | –
91 | CCOC(=O)C1CCCCN1S(=O)(=O)c1csc(C(N)=O)c1 (centres undefined) | inactive: -1.42% | –
92 | Cc1ccc(C2=CC(c3ccccc3F)n3c(nc4ccccc43)N2)cc1C (centres undefined) | inactive: -0.749% | –
93 | CN(C)c1ccc(-n2c(CCC(=O)O)ccc2-c2ccccc2)cc1 | inactive: -3.22% | –
94 | COc1ccc(CC(=O)NCc2ccc3c(c2)CCN3C(=O)c2ccccc2)cc1OC | inactive: 0.892% | –
